This note sets out measurements from PubChem BioAssay AID1745853 (National Center for Advancing Translational Sciences (NCATS), 2022).

The structures appear in SMILES notation. This is one part of the list. Shown are side measurements of this screen, not its main read-out; they come without a call.

Assay in all cases: Primary Screen for Target Class Profiling of Small Molecule Inhibitors of Methyltransferases
In experiment [1] the target is Glycine N-methyltransferase (Homo sapiens) (UniProt Q14749). The note with it: purified enzyme, MTase-Glo SAH luminescence; measured here: GNMT inhibition; at 40 µM; stronger effect = lower value. Put shortly:
(§1)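 Each enzyme was reacted with SAM and its substrate, with compounds tested once at 40 uM; SAH formed was read by MTase-Glo luminescence.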

The target of experiment [2] is Guanidinoacetate N-methyltransferase (Homo sapiens) (UniProt Q14353). Particulars: purified enzyme, MTase-Glo SAH luminescence; measured here: GAMT inhibition; at 40 µM; stronger effect = lower value. Put shortly: as §1
The target of experiment [3] is Histamine N-methyltransferase (Homo sapiens) (UniProt P50135). The note with it: purified enzyme, MTase-Glo SAH luminescence; measured here: HNMT inhibition; at 40 µM; stronger effect = lower value. In outline: as §1
The target in experiment [4] is Nicotinamide N-methyltransferase (Homo sapiens) (UniProt P40261). Particulars: purified enzyme, MTase-Glo SAH luminescence; measured here: NNMT inhibition; at 40 µM; stronger effect = lower value. Put shortly: as §1
For experiment [5], the target named is Phenylethanolamine N-methyltransferase (Homo sapiens) (UniProt P11086). Particulars: purified enzyme, MTase-Glo SAH luminescence; measured here: PNMT inhibition; at 40 µM; stronger effect = lower value. In outline: as §1
On the % scale 0 is the no-effect control and ±100 the full control effect.

Take `CC(C)n1c(=O)c2ccc(C(=O)NC3CCCCC3)cc2n2c(=O)n(Cc3ccccc3F)nc12`: the activity change, negative = inhibition was -1.68% in experiment [1]; 2.85% in experiment [2]; 3.6% in experiment [3]; -2.36% in experiment [4]; 0.424% in experiment [5].

Take `CC(C)NC(=O)CN1C(=O)NC(c2ccc(Cl)cc2)C2=C1COC2=O` (configuration not stated): the activity change, negative = inhibition in experiment [1] was -0.93%; in experiment [2], 0.587%; in experiment [3], 0.81%; in experiment [4] it was 4.3%; in experiment [5], 2.36%.

On to `O=C(O)CC1NCCNC1=O` (configuration not stated), for which the activity change, negative = inhibition in experiment [1] is -1.12%; in experiment [2], -2.81%; in experiment [3], 1.45%; in experiment [4] it was -7.69%; in experiment [5], -0.311%.

On to `COc1ccc(Cl)cc1NC(=O)N1CCn2cccc2C1Cc1ccccc1` (configuration not stated), for which the activity change, negative = inhibition in experiment [1] was -5.87%; in experiment [2] it was 0%; in experiment [3] it was 2.16%; in experiment [4], -4.92%; in experiment [5] it was -3.29%.

For `CNC(=O)c1ccc(NC(=O)c2nc(C(O)c3ccccc3F)oc2C)cc1` (configuration not stated), the activity change, negative = inhibition in experiment [1] is -9.91%; in experiment [2], -6.21%; in experiment [3], -1.98%; in experiment [4], -5.59%; in experiment [5], -0.1%.

On to `CC(=O)Oc1cc(C(C)C)c(OCCN(C)C)cc1C`, for which the activity change, negative = inhibition in experiment [1] was 4.87%; in experiment [2], 12.6%; in experiment [3], 8.51%; in experiment [4], -0.987%; in experiment [5], 9.22%.

On to `CN1[C@@H](CCC(=O)N2CCN(c3ccccn3)CC2)CNC(=O)[C@@H]2[C@H]1CCN2Cc1ncc[nH]1`, for which the activity change, negative = inhibition in experiment [1] was -1.63%; in experiment [2], -0.883%; in experiment [3], -1.8%; in experiment [4], 1.34%; in experiment [5], 1.81%.

On to `Cc1nc(CN2CCOc3cc([S+](=O)([O-])N(C)C)ccc3C2)cs1`, for which the activity change, negative = inhibition in experiment [1] was -1.68%; in experiment [2], -3.93%; in experiment [3] it was -2.54%; in experiment [4], 0.753%; in experiment [5] it was -3.57%.

For the compound `COc1ccc(-n2ccnc2-c2cc3n(n2)CCCNC3)c(OC)c1`, the activity change, negative = inhibition in experiment [1] is -2.07%; in experiment [2], -2.73%; in experiment [3], 0.445%; in experiment [4], -7.16%; in experiment [5], 8.58%.

Regarding `O=c1cc(-c2ccncc2)nc(-c2ccc(CN3CC[C@@H](O)C3)cc2)[nH]1`, the activity change, negative = inhibition in experiment [1] is -11.3%; in experiment [2], -8.19%; in experiment [3], -7.38%; in experiment [4], -10.9%; in experiment [5], -6.08%.

With `O=C(COc1cc2oc(=O)cc(-c3ccccc3)c2cc1Cl)OCc1ccccc1`, the activity change, negative = inhibition in experiment [1] was -6.59%; in experiment [2], 3.01%; in experiment [3], -3.61%; in experiment [4], -4.94%; in experiment [5], -4.92%.

Take `CNC(=O)[C@@H]1CN(C(=O)c2cc3cc(OC)ccc3[nH]2)C[C@H]1COC`: the activity change, negative = inhibition is -2.96% in experiment [1]; -4.27% in experiment [2]; -1.18% in experiment [3]; -11.2% in experiment [4]; -19.8% in experiment [5].

Regarding `COc1ccc2c(c1)OC[C@]1(O)c3cc4c(cc3O[C@H]21)OCO4`, the activity change, negative = inhibition is -4.24% in experiment [1]; -2.43% in experiment [2]; 7.34% in experiment [3]; -20.9% in experiment [4]; 1.64% in experiment [5].

On to `O=C(NC[C@H]1O[C@@H](CO)[C@@H](O)[C@H]1N1CCCC1)c1ccc(F)c(Cl)c1`, for which the activity change, negative = inhibition in experiment [1] is -1.83%; in experiment [2], -0.845%; in experiment [3] it was 0.635%; in experiment [4] it was -7.11%; in experiment [5], -3.67%.

With `CCC(C)NC(=O)c1ccc2c(=O)n(CCC(C)C)c3nn(Cc4cccc(Cl)c4)c(=O)n3c2c1` (configuration not stated), the activity change, negative = inhibition was -1.49% in experiment [1]; 1.19% in experiment [2]; 2.2% in experiment [3]; 2.14% in experiment [4]; -2.89% in experiment [5].

Take `CC(C)CC1(C(=O)OCc2ccc(O[C@@H]3O[C@H](CO)[C@@H](O)[C@H](O)[C@H]3O)cc2)CC(=O)OC(C(=O)O)CC(=O)OCC2OC(O1)C(OC(=O)/C=C/c1ccc(O)cc1)C(O)C2O` (some centres not stated): the activity change, negative = inhibition in experiment [1] is -0.333%; in experiment [2], 2.51%; in experiment [3], 4.51%; in experiment [4] it was -9.09%; in experiment [5], 6.82%.

Consider `C=C1CC[C@@H]2[C@@](C)(CO[C@@H]3O[C@H](CO)[C@@H](O)[C@H](O)[C@H]3O)[C@H](O)CC[C@@]2(C)[C@@H]1CC/C(C)=C/CO[C@@H]1O[C@H](CO)[C@@H](O)[C@H](O)[C@H]1O`, for which the activity change, negative = inhibition in experiment [1] was -3.15%; in experiment [2], -11.2%; in experiment [3] it was 1.48%; in experiment [4], -20%; in experiment [5], -2.95%.

Take `Cc1ccc(F)cc1C(=O)Nc1ccc(C(=O)N2Cc3cccn3Cc3ccccc32)c(Cl)c1`: the activity change, negative = inhibition in experiment [1] is -7.19%; in experiment [2] it was -17.9%; in experiment [3] it was -4.03%; in experiment [4], -39.6%; in experiment [5], -12.7%.

On to `Cc1ccc(-c2nnn3c2nc(NC2CCCC2)c2ccccc23)cc1`, for which the activity change, negative = inhibition in experiment [1] was found to be 0.836%; in experiment [2] it was 0.132%; in experiment [3], 4.52%; in experiment [4], 5.15%; in experiment [5], 0.363%.

For `COc1ccccc1CN1CC(c2noc(CCC(=O)c3ccc(C)cc3)n2)CC1=O` (configuration not stated), the activity change, negative = inhibition in experiment [1] was -3.88%; in experiment [2] it was 4.4%; in experiment [3] it was 0.086%; in experiment [4] it was -11.2%; in experiment [5] it was -3.26%.

As for `CC(=O)N1CCn2c3c(c4cc(C)ccc42)CCCC31` (configuration not stated), the activity change, negative = inhibition in experiment [1] was 2.29%; in experiment [2], 1.73%; in experiment [3], 0.879%; in experiment [4], -2.63%; in experiment [5], -0.354%.

Regarding `O=C(NCCCn1cccn1)c1ccccc1OC1CCN(Cc2ccccn2)CC1`, the activity change, negative = inhibition in experiment [1] was -0.364%; in experiment [2] it was 0.766%; in experiment [3] it was -0.775%; in experiment [4] it was 4.95%; in experiment [5], 6.6%.

As to `CN(C)C/C=C/C(=O)Nc1cc2c(Nc3ccc(F)c(Cl)c3)ncnc2cc1OC1CCOC1` (configuration not stated), the activity change, negative = inhibition was -68.7% in experiment [1] and -69.3% in experiment [3].

As for `O=c1c2ccccc2n2c(=O)n(Cc3c(F)cccc3Cl)nc2n1Cc1ccccc1`, the activity change, negative = inhibition in experiment [1] came out at 7.53%; in experiment [2], 1.25%; in experiment [3] it was 9.39%; in experiment [4], 10.5%; in experiment [5], 9.23%.

Regarding `Cc1ccc(Cn2c(=O)c3ccc(C(=O)NC4CCCCC4)cc3n3c(=O)[nH]nc23)cc1`, the activity change, negative = inhibition in experiment [1] was -2.95%; in experiment [2] it was 1.17%; in experiment [3] it was 3.76%; in experiment [4] it was -3.68%; in experiment [5], -5.86%.

Take `O=C(NCCc1ccccc1)c1ccc(CN2C(=O)CCn3nc(-c4ccccc4)cc32)cc1`: the activity change, negative = inhibition in experiment [1] is -5.26%; in experiment [2], 2.89%; in experiment [3], 2.03%; in experiment [4], -31.3%; in experiment [5], -0.191%.

As for `Cc1cccc(CNC(=O)C2(C)Cn3cnc(C(=O)N4CCOCC4)c3C(=O)N2C2CC2)c1` (configuration not stated), the activity change, negative = inhibition worked out at 3.15% in experiment [1]; 1.61% in experiment [2]; 14.7% in experiment [3]; 5.13% in experiment [4]; 11.8% in experiment [5].

For `NC(=O)Cn1ccn2nc3c(c2c1=O)CCCC3`, the activity change, negative = inhibition in experiment [1] was -2.66%; in experiment [2] it was -2.4%; in experiment [3], 0.071%; in experiment [4], -0.914%; in experiment [5] it was -3.28%.

On to `CN(Cc1ccccc1)Cc1cc(C[C@@H]2C[C@H](NC(=O)C3CCC3)C2(C)C)no1`, for which the activity change, negative = inhibition was -2.94% in experiment [1]; 4.45% in experiment [2]; 0.346% in experiment [3]; -4.54% in experiment [4]; 13.7% in experiment [5].
